According to PMC4336329 (PLoS ONE, 2015):
The campaign covered roughly 310,000 compounds. About 14,000 (4.5%) showed an effect of 50% or more. The effect is printed as a negative number. The list shows a part of the results.

The compounds below were run against human ether-à-go-go-related gene (hERG) potassium channel (human, UniProt Q12809) (assay: primary screen, population patch clamp on CHO cells stably expressing hERG).
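Also: peak tail current of the secondary pulse compared with the same well before compound.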

Chain of human ether-à-go-go-related gene (hERG) potassium channel (Q12809 whole entry, looked up): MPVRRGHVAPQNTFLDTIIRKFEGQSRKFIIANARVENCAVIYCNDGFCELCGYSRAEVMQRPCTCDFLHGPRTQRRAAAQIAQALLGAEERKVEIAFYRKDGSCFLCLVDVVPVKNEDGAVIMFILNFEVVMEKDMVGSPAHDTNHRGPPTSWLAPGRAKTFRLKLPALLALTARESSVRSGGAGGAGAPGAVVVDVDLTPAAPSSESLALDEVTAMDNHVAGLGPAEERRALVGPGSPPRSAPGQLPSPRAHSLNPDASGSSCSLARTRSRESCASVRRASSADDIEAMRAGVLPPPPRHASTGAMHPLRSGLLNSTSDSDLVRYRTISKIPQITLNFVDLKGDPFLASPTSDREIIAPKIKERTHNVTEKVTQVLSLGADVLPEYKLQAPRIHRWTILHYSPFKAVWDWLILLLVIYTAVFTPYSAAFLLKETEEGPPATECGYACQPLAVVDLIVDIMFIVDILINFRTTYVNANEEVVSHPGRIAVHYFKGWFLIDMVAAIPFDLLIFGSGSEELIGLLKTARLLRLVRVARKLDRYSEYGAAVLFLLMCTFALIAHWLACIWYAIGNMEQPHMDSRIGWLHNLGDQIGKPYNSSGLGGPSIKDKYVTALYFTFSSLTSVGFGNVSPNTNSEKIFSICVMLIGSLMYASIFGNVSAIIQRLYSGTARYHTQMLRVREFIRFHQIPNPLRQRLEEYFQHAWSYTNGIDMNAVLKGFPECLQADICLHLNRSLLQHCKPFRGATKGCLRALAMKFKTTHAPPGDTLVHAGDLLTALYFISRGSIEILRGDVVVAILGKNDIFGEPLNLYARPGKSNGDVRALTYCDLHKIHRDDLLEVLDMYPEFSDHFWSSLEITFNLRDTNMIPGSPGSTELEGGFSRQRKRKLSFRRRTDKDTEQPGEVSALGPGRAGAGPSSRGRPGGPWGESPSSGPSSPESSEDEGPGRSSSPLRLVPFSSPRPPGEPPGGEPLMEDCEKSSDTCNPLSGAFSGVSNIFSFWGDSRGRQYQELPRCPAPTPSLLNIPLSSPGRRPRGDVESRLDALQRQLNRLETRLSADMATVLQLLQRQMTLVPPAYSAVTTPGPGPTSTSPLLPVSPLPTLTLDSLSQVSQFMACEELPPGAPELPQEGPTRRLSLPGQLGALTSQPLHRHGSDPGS

Structure (SMILES)	hERG current change (%, negative = inhibition) at 10uM [%]
CC(=O)N1c2ccc(S(=O)(=O)N3CCC(C(=O)N4CCN(c5ccccc5)CC4)CC3)cc2CC1C (centres unmarked)	-15
Cc1cccc(C(=O)N2CCN(c3ccc([N+](=O)[O-])c(NCc4ccco4)c3)CC2)c1	-34
O=C(Cn1nc(C(F)(F)F)c2c1CCCC2)NCCN1CCOCC1	2.81
COc1ccc(C)cc1NC(=O)CN(C)S(=O)(=O)c1cnc[nH]1	-3.02
CCOc1ccccc1NC(=O)C(OC(=O)c1ccccc1NS(=O)(=O)c1cccs1)c1ccccc1 (centres unmarked)	10.9
NC1=NC(=O)/C(=C/c2ccc(-c3ccc(S(N)(=O)=O)cc3)o2)S1	16.4
COC(=O)c1cc(NC(=O)C2CCCN(S(=O)(=O)c3c(C)n[nH]c3C)C2)cc(C(=O)OC)c1 (centres unmarked)	10.3
COc1ccc(-c2ccc(=O)n(Cc3ccc([N+](=O)[O-])cc3)n2)cc1	-75
C=CCNC(=S)N/N=C/c1ccc(-c2ccc(Br)cc2)o1	15.5
Cn1c(=O)c2c(ncn2CCc2ccccc2)n(C)c1=O	14.7
C=CCNC(=O)/C(C#N)=C/c1c(N2CC(C)OC(C)C2)nc2ccccn2c1=O (centres unmarked)	-25.1
CCC(=O)N1CCc2cc(Br)cc(S(=O)(=O)NCCN3CCCCC3C)c21 (centres unmarked)	-6.93
O=C(Cn1nc(-c2cccc(Cl)c2)ccc1=O)Nc1ccccc1Br	10.7
Cc1ccc(C2CC(c3ccc(Cl)cc3)=NNC2=O)cc1 (centres unmarked)	-24
O=C(NCCS(=O)(=O)NCc1ccc(F)cc1)c1ccc2c(c1)OCO2	-39.8
Cc1cc(C(=O)NNC(=O)COc2ccccc2Cl)n[nH]1	11
O=c1[nH]c(=S)[nH]c(O)c1N=Nc1ccc(OC(F)F)cc1	1.51
O=S(=O)(NCC1CCCO1)c1ccc(-c2ccc(S(=O)(=O)NCC3CCCO3)cc2)cc1 (centres unmarked)	-17
CCCc1cc(=O)oc2cc3oc(C)c(C)c3cc12	3.6
CSCc1ccc(C(=O)Nc2ccc(C(N)=O)cc2)cc1	12.3
Cc1ccc(-c2ccc(SCC(=O)Nc3cc(C)on3)nn2)cc1	20
CCCCN(CC)S(=O)(=O)N1CCC(C(=O)NCCCN2CCOCC2)CC1	16.9
CCCS(=O)(=O)N1CCCC(C(=O)NCCCN2CCN(c3ccccc3F)CC2)C1 (centres unmarked)	-21.1

Structure (SMILES)	hERG current change (%, negative = inhibition) at 10uM [%]
O=C(c1ccco1)N1CCN(c2ncnc3scc(-c4ccc(F)cc4)c23)CC1	-70.2
CCCC(=O)Nc1nc2c(s1)COc1ccccc1-2	8.38
O=[N+]([O-])c1ccc(NC(=S)N2CCOCC2)cc1	-14
Cc1ccccc1N1C(=O)CSC1=C(C#N)C#N	18.3
COc1cnc(-c2ccccc2)c(-c2ccccc2)n1	1.06
Cc1ccc(S(=O)(=O)N2CCN(c3ccc([N+](=O)[O-])c4cccnc34)CC2)cc1	-9.52
COC(=O)C1C(=O)OC(C)(C)C1C(C)C(=O)c1ccccc1 (centres unmarked)	15.8
O=c1cccc2n1CC1CC2CN(Cc2c(Cl)cccc2Cl)C1 (centres unmarked)	-40.5
CCOc1ccc(NCc2cc3cc(OC)ccc3[nH]c2=O)cc1	2.01
COc1ccc(OC(=O)COc2cccc(C)c2)cc1	13.8
Cc1oc2ccc(OCc3ccccc3F)cc2c1C(=O)O	4.78
Cc1cc(C)c2cc(C#N)c(N3CCCC3)nc2c1	-3.43
Cc1ccc(N(CC(N)=O)C2SC(=O)N(C)C2=O)cc1 (centres unmarked)	-2.34
Cc1ccc(-c2nc(N3CCN(C)CC3)c3ccccc3n2)cc1.Cl	-59.9
CCN(CC)CCOC(=O)c1c(C)oc2ccc(O)cc12.Cl	-23.5
COc1ccccc1N1CC(C(=O)Nc2ccccc2N2CCCC2)CC1=O (centres unmarked)	11.5
COc1ccc(-c2c(C(=O)O)nc3ccccc3c2C(=O)O)cc1	5.04
Clc1cccc(Sc2ccc(-c3ccccn3)s2)c1	15.9
CC1CC(C)CN(C(=O)CCNS(=O)(=O)c2ccc3c(c2)CCC(=O)N3)C1 (centres unmarked)	8.96
CC(Sc1nc(-c2ccccc2)cc(C(F)(F)F)n1)C(=O)Nc1sc2c(c1C#N)CCC2 (centres unmarked)	-0.44
COc1cc2c(cc1OC)C(c1cc(Br)c(OC)c(OC)c1)CC(=O)N2 (centres unmarked)	19.2
COc1cccc(CNC(=O)CCCC(=O)NC(C)CCc2ccccc2)c1 (centres unmarked)	-5.45
CC(=O)NCCc1ccc(O)cc1	2.07

Structure (SMILES)	hERG current change (%, negative = inhibition) at 10uM [%]
CCCNc1nc(OCC(F)(F)F)nc(OCC(F)(F)F)n1	3.4
CN(C)CCCNC(=O)c1ccc(-c2nc(-c3ccc(Cl)cc3)cs2)cc1	-10.7
CC(C)Cc1nnc(NC(=O)CCS(=O)(=O)c2ccc(Cl)cc2)s1	14.5
CCOc1cc(-c2nccc3cc(OC)c(OC)cc23)cc(OCC)c1OCC	-46.8
O=C(O)C(=O)O.O=C(c1ccco1)N1CCN(Cc2ccc(F)cc2)CC1	4.23
Cc1[nH]c(=O)[nH]c(=O)c1S(=O)(=O)Nc1ccc(F)c([N+](=O)[O-])c1	1.37
COc1cc(CNCc2ccccc2)c(Br)cc1OC1CCCC1.Cl	-13.4
CCN(CC)C(=O)C1CC(=O)OC12CCCCC2 (centres unmarked)	-0.326
CCCCc1c(O)nc(SCC(=O)N2CCOCC2)n(-c2ccc(OC)cc2)c1=O	13.4
COCCCNC(=O)c1ccc(S(=O)(=O)c2ccc(C)cc2)c(NC(C)=O)c1	16.2
CCN(CC(=O)Nc1ccc(NC(C)=O)cc1)Cc1c(O)ccc2cc(Br)ccc12	6.76
CCOc1ccccc1NC(=O)C(CC(C)C)NC(=O)C1CCC(C)CC1 (centres unmarked)	-15.7
CCCCNC(=O)c1cc2ccccc2s1	10.8
CCCCCCCCCCCCN1[C@@H](CC(C)=O)c2cc(F)cc(F)c2S1(=O)=O	15.5
CCOc1ccc(CCNC(=O)c2nn(C)c3c2CS(=O)(=O)c2ccccc2-3)cc1OCC	-39.7
O=C(CC(=O)N/N=C/c1ccc(O)cc1)N/N=C/c1ccc(O)cc1	14.3
COc1cccc(CNC(=O)C2CCN(c3nnc(N4CCCC4=O)s3)CC2)c1	17
O=C(N/N=C/C=C\c1cccc([N+](=O)[O-])c1)c1ccccn1	5.13
O=C(CCS(=O)(=O)Cc1ccccc1)N1CCN(Cc2ccccc2)CC1	-22.1
O=C1/C(=C\c2ccc3c(c2)OCO3)N2CCC1CC2	-6.55
COc1cc(CCN2C(=O)N[C@@H](c3cccc(C(F)(F)F)c3)C(C(C)=O)=C2C)cc(OC)c1OC	-41
COCc1cc(N2CCCCC2)nc(-c2ccccc2)n1	-6.15
COc1ccccc1C(=O)N(Cc1cccs1)C1CCS(=O)(=O)C1 (centres unmarked)	8.04

Structure (SMILES)	hERG current change (%, negative = inhibition) at 10uM [%]
COc1ccc(C(=O)Nc2ccc3nc(N4CCCCC4)cc(C)c3c2)cc1OC	-56.8
CC(C)C[C@@H](CSc1ccccc1)N1CCN(C)CCC1=O	-16
COCC(C)N1CCC(Oc2cccc(C(=O)NCCc3ccccc3)c2)CC1 (centres unmarked)	-66.3
CCCS(=O)(=O)N1CCC(C(=O)NCCC(C)C)CC1	4.73
Cc1ccc(-c2csc(NC(=O)c3c(C)noc3C)n2)cc1C	-2.64
CCN(CC(=O)Nc1ccccc1C(F)(F)F)C(=O)Cn1c(=O)cnc2ccccc21	3.49
NC(=S)N/N=C/c1coc2cc(Cl)ccc2c1=O	-7.29
COc1ccccc1OC(=O)c1ccc(S(=O)(=O)N(C)C)cc1	-0.162
CCCCNC(=S)NNC(=O)c1ccncc1	15.8
CCc1cc(C=C(Cl)Cl)oc(=O)c1C	-12.3
COc1cc(/C(C)=N/N2CCOCC2)cc(OC)c1OC	29.5
COc1ccc(NC(=O)CSc2ccc3nnc(-c4cccnc4)n3n2)cc1OC	1.17
CCOc1cc(N2CCOCC2)c(OCC)cc1NC(=O)CN1C(=O)C2C3C=CC(C3)C2C1=O (centres unmarked)	14.3
COc1cc(/C=N/NC(=O)c2cccnc2)ccc1OS(=O)(=O)c1cc(C)ccc1C	-27
O=C(Nc1cccc(F)c1)C1CCN(C(=O)c2ccc(Cl)cc2)CC1	-49.4
Cc1cc(=O)[nH]c(NCc2ccc(Cl)cc2)n1	12.3
Cc1cc(C)n(-c2nc3sc4c(c3c3nnc(SC(C)C)n23)CC(C)(C)OC4)n1	-8.81
Cc1ccc2cc(CN(Cc3ccc(F)cc3)Cc3nnnn3C3CCCC3)c(=O)[nH]c2c1	-15.9
COc1cccc(NC(=O)C2CCN(S(=O)(=O)c3ccc4[nH]c(=O)ccc4c3)CC2)c1	-11.3
O=C(Nc1ccc(-n2cnnn2)cc1)C1CCCCC1	-4.61
